34 variants from the RNAGym collection of RNA variant scans (doi:10.1093/nar/gkz1192) can be followed below.

The source gives no read counts; variants with many changes may rest on few reads.

Sequences and labels used below:
B1: CPEB3 Ribozyme (parent)
chain: UAACAGGGGGCCACAGCAGAAGCGUUCACGUCGCAGCCCCUGUCAGAUUCUGGUGAAUCUGCGAAUUCUGCUGUAUAUCUC

In the data set the parent is B1. In words: self-cleavage, relative activity (ratio to wild type); higher = more cleavage; in vitro, sequencing. The procedure, abridged: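 Relative activity was defined as the cleaved/total read fraction for a variant divided by the same fraction for the unmutated ribozyme. CPEB3 self-cleaving ribozyme libraries were made by rounds of error-prone PCR, barcoded, and transcribed in vitro with T7 RNA polymerase for 5 hours at 37°C, and cleavage ran through transcription plus a 15 min DNase I step before EDTA. Illumina sequencing of template-switched reverse transcripts gave the reads, and DNA sequencing mapped the barcodes. Averages come from three batches, using variants with at least 5 reads.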
On to UAACAGGGGGCCACAGCGGAAGCGUUCGCGUCGCAGCCCCUGUCAGAUUCUGGUGAAUCCGCGAAUUCUGCUGUAUAUCUC, for which the self-cleavage turned out to be 0.18.
On to UAACAGGGGGCCACAGCGGAAGCGUUCACGUCGCAGCCCCUGUCGGUUUCUGGUGAAUCUGCGAAUUCUGCUGUAUAUCUC, for which the self-cleavage worked out at 0.19.
UAACAGGGGGCCACAGCGGAAGCGUUCACGUCGCAGCCCCUGUCGGAUUCAGGUGAAUCCGCGAAUUCUGCUGUAUAUCUC: the self-cleavage came to 0.95.
Under UAACAGGGGGCCACAGCGGAAGCGUUCACGUCGCGGCCCCUGUCAGAUUCUGGUGGACCUGCGAAUUCUGUUGUAUAUCUC stands 0.31.
Then UAACAGGGGGCCACAGCGGAAGCGUUCGCGUCGCAGCCCCUGUCAGAUUCUGGUGAAUCUGCGAGUCCUGCUGCAUAUCUC, with 0.39; and UAACAGGGGGCCACAGCGGAAGCGUUCACGUCGCAGCCCCUGUCGGAUUCUGGUGAAUCUGCGAAUUCUGCUGUAUGCCUC, with 0.29.
Take UAACAGGGGGCCACAGCGGAAGCGUUCACGUCGCUGCCCCAGUCUGAUUCUGGUGAACCUGCGAAUUCUGCUGUAUAUCUC: the self-cleavage worked out at 0.2.
Then UAACAGGGGGCCACAGCGGAAGCGUUCACGUCGCCGCCCCCGUCAGAUUCUGGUGAAUCUGCGAAUUCUGCUGUAUACCUC, with 0.67.
For the variant UAACAGGGGGCCACAGCGGAAGCGUUCCCGUCGCAGCCCCAGUCUGAUUCUGGUGAAUCUGCGAAUUCUGCUGUAUAUCUC, the self-cleavage is 0.25.
Consider UAACAGGGGGCCACAGCGGAAGCGUUCGCGUCGCAGCCCCAGUCAGAUCCUGGUGAAUCUGUGAAUUCUGCUGUAUAUCUC, for which the self-cleavage is 0.05.
On to UAACAGGGGGCCACAGCGGAAGCGUUCACGUCGCUGCCCCUGUCAGAUUCUGGUGAAUCUGCGACUUCUGCUGUAUAUCUC, for which the self-cleavage amounted to 0.16.
Then UAACAGGGGGCCACAGCGGAAGCGUUCGCGUCGCAGCCCCUGUCAGAUUCUGGGGAAUCUGCGAAUUCUGCUGUAUAUCUC, with 0.2; and UAACAGGGGGCCACAGCGGAAGCGUUCACGUCGCUACCCCUGUCAGAUCCUGGUGAAUCUGCGAAUUCUGCUGUAAAUCUC, with 0.09.
As to UAACAGGGGGCCACAGCGGAAGCGUUCCCGUCGCAGCCCCUGUCAGAUUCUGGUGAAUCUGCGAAUUCUGCUGUGUAUCUC, the self-cleavage was 0.42.
Then UAACAGGGGGCCACAGCGGAAGCGUUCGCGUCGCAGCCCCUGUCAGAUUCUGGUGAGUCUGCGAAUUCUGCUGUAUAUCUC, with 0.22.
Under UAACAGGGGGCCACAGCGGAAGCGUUCACGUCGCAGCCCCUGUCGGAUUCUGGUGAAUCCGCGAAUUCUGCUGUAUAUCUC stands 0.79.
Under UAACAGGGGGCCACAGCGGAAGCGUUCACGUCGCGGCCCCUGUCAGAUUCUGGUGAAUCAGCGAAUUCUGCUGUAUAUCUC stands 0.4; under UAACAGGGGGCCACAGCGGAAGCGUUCACGUCGCCGCCCCCGUCAGAUUCUGGUGAAUCUGCGAAUUCUGCUGUAUAUCUC, 0.23.
For the variant UAACAGGGGGCCACAGCGGAAGCGUUCACGUCGCGGCCCCUGUCAGAUUCUGGUGAAUCUGCGAAUUCUGCUGUAGAUCUC, the self-cleavage came out at 1.09.
Under UAACAGGGGGCCACAGCGGAAGCGUUCGCGUCGCAGCCCCUGUCAGAUUCUGGUGAAUCUGCGAAUUCUGCCGUAUAUCUC stands 0.28; under UAACAGGGGGCCACAGCGGAAGCGUUCGCGUCGCAGCCCCUGUCUGAUUCUGGUGAAACUGCGAGUUCGGCUGUAUAUCUC, 0.07; under UAACAGGGGGCCACAGCGGAAGCGUUCACGUCGCUGCCCCUGUCAGAUUCUGGUGCAUCUGCGAAUCCUGCUGUAUAUCUC, 0.07.
Turning to UAACAGGGGGCCACAGCGGAAGCGUUCGCGUCGCAGCCCCUGUCAGAUUCUGGUGAAUCUGCGAGUUCUGCUGUAUAUCUC, the self-cleavage stood at 0.1.
Turning to UAACAGGGGGCCACAGCGGAAGCGUUCACGUCGCAGCCCCUGUCGGAUUCUGGUGAGUGUGCGAAUUCUGCUGUAUAUCCC, the self-cleavage stood at 0.11.
As to UAACAGGGGGCCACAGCGGAAGCGUUCACGUCGCUGCCCCGGUCAGGUUCUGGUGAAUCUGCGAAUUCUGCUGUAUAUCUC, the self-cleavage worked out at 0.19.
Under UAACAGGGGGCCACAGCGGAAGCGUUCCCGCCGCAGCCCCUGUCAGAUUCUGGUGAAUCUGCGAAUUCUGCUGUAUAUCUC stands 0.22; under UAACAGGGGGCCACAGCGGAAGCGUUCACGUCGCAGCCCCUGUCGGAUACAGGUGAAUCUGCGAAUUCUGCUGUGUUUCUC, 0.2; under UAACAGGGGGCCACAGCGGAAGCGUUCACGUCGCCGCCCCUGUCAGAUUCUGGUGAAUCUGCGAAUUCUGCGGUAUAUCUC, 0.49.
Under UAACAGGGGGCCACAGCGGAAGCGUUCGCGUCGCAGCCCCUGUCAGAUUCUGGAGAAUCUGCGAAUACUGCUGUAUAUCUC stands 0.14; under UAACAGGGGGCCACAGCGGAAGCGUUCGCGUCGCAGCCCCUGUCAGAUUCUGGCGAAUCUGCGAAUUCUGCUGUAUACCUC, 0.19; under UAACAGGGGGCCACAGCGGAAGCGUUCACGUCGCGGCCCCUGUCAGAUUCUGGUGAAUCUGCGGAUUCUGCUGUAUAUCUC, 1.27.
Then UAACAGGGGGCCACAGCGGAAGCGUUCUCGCCGCAGCCCCUGUCAGAUUCUGGUGAAUCAGCGAAUUCUGCUGUAUAUCUC, with 0.05; and UAACAGGGGGCCACAGCGGAAGCGUUCACGUCGCAGCCCCUGUCGGAUACUGGUGAAUCUGCGAAUUCUGCUGUAUAUCUC, with 0.21; and UAACAGGGGGCCACAGCGGAAGCGUUCCCGUCGCAGCCCCUGUCAGAUUCUGGUGAAUCUGCGAAUUCUGCUGUAAAUCUC, with 0.24.
